From US20250084178A1 (ARCUS BIOSCIENCES, published 2025)
Read-outs that look alike come from different tables or passages of the source.

T1: soluble His-tagged human CD39 ECD protein (human, UniProt P49961 38-478)
T1 construct: also called human CD39 ECD His-tagged antigen; Sino Biological Cat. No. 16020-H08B
T1 sequence: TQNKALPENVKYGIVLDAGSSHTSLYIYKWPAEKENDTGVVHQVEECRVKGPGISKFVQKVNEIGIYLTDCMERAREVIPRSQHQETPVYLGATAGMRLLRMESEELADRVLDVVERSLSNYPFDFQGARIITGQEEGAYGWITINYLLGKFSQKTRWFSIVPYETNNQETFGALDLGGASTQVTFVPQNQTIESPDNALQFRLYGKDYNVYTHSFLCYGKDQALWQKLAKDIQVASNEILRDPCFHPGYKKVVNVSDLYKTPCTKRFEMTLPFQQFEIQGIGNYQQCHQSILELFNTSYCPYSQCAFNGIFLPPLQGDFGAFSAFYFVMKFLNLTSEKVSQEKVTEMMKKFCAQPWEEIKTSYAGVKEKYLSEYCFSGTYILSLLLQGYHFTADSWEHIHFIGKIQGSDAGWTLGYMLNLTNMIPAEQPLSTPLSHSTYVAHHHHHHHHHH

T2: human CD39 expressed on the cell surface (human, UniProt P49961 1-510)
T2 sequence: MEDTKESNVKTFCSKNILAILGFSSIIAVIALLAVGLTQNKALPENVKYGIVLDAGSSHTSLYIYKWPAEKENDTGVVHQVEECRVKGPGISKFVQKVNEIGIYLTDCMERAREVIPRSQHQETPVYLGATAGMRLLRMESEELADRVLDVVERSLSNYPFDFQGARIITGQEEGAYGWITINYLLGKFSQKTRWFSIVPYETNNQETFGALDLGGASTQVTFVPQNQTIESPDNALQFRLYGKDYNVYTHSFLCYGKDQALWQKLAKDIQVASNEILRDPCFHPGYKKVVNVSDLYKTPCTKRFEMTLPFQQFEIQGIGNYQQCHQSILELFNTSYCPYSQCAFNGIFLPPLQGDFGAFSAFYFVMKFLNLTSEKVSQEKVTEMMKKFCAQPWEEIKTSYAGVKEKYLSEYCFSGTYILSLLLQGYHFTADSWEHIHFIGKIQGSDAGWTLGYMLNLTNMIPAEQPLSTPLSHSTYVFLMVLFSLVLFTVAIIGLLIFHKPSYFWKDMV

T3: cynomolgus monkey CD39 expressed on HEK-293 cells (cynomolgus monkey, UniProt P49961 5-510 (human entry))
T3 construct: also called Cynomolgus Monkey CD39-HEK293
T3 chain: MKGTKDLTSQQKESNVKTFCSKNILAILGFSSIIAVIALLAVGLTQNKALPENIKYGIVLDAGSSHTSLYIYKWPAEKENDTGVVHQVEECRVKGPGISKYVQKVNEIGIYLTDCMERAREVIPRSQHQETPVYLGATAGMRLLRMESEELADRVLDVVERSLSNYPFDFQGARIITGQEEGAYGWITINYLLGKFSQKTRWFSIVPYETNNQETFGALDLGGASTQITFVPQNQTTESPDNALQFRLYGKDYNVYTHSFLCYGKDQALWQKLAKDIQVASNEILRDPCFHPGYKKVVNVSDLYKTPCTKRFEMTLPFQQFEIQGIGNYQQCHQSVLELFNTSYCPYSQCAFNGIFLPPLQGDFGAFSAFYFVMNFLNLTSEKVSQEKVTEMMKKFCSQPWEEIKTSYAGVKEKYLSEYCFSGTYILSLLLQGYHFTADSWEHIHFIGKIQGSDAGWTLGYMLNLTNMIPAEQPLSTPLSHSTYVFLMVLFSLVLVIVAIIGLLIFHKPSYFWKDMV

B1: hu39.3_IGG4.P (antibody, human IgG4 S228P, kappa)
heavy: EVQLVESGGGLVQPGRSLRLSCAASGFTFNNYGMNWVRQAPGKGLEWVSSFSSSSTYISYADTVKGRFTISRDNAKNSLYLQMNSLRAEDTALYYCARHGRYGGYGGFYFDYWGQGTMVTVSSASTKGPSVFPLAPCSRSTSESTAALGCLVKDYFPEPVTVSWNSGALTSGVHTFPAVLQSSGLYSLSSVVTVPSSSLGTKTYTCNVDHKPSNTKVDKRV[no letters for human IgG4 Fc with S228P (EU numbers)]
light: EIVMTQSPATLSVSPGERATLSCRASEGVKSYMHWYQQKPGQAPRLLIYKASNLASGIPARFSGSGSGTEFTLTISSLQSEDFAVYYCQQSWNDPTFGQGTKLELKRTVAAPSVFIFPPSDEQLKSGTASVVCLLNNFYPREAKVQWKVDNALQSGNSQESVTEQDSKDSTYSLSSTLTLSKADYEKHKVYACEVTHQGLSSPVTKSFNRGEC
notes: humanized variant of antibody 39 (VH1 + VL3), IgG4 (S228P)
B2: hu39.6_IGG4.P (antibody, human IgG4 S228P, kappa)
heavy: QVQLVESGGGVVQPGRSLRLSCAASGFTFNNYGMNWVRQAPGKGLEWVASFSSSSTYISYADTVKGRFTISRDNSKNTLYLQMSSLRAEDTAVYYCARHGRYGGYGGFYFDYWGQGTMVTVSSASTKGPSVFPLAPCSRSTSESTAALGCLVKDYFPEPVTVSWNSGALTSGVHTFPAVLQSSGLYSLSSVVTVPSSSLGTKTYTCNVDHKPSNTKVDKRV[no letters for human IgG4 Fc with S228P (EU numbers)]
light: EIVMTQSPATLSVSPGERATLSCRASEGVKSYMHWYQQKPGQAPRLLIYKASNLASGIPARFSGSGSGTEFTLTISSLQSEDFAVYYCQQSWNDPTFGQGTKLELKRTVAAPSVFIFPPSDEQLKSGTASVVCLLNNFYPREAKVQWKVDNALQSGNSQESVTEQDSKDSTYSLSSTLTLSKADYEKHKVYACEVTHQGLSSPVTKSFNRGEC
notes: humanized variant of antibody 39 (VH3 + VL3), IgG4 (S228P)
B3: hu39.8_IGG4.P (antibody, human IgG4 S228P, kappa)
heavy: EVQLVESGGGLVQPGRSLRLSCAASGFTFNNYGMNWVRQAPGKGLEWVSSFSSSSTYISYADTVKGRFTISRDNAKNSLYLQMNSLRAEDTALYYCARHGRYGGYGGFYFDYWGQGTMVTVSSASTKGPSVFPLAPCSRSTSESTAALGCLVKDYFPEPVTVSWNSGALTSGVHTFPAVLQSSGLYSLSSVVTVPSSSLGTKTYTCNVDHKPSNTKVDKRV[no letters for human IgG4 Fc with S228P (EU numbers)]
light: ETVMTQSPATLSVSPGERATLSCRASEGVKSYMHWYQQKPGQAPRLLIYKASNLASGIPARFSGSGSGTEFTLTISSLQSEDFAVYYCQQSWNDPTFGQGTKLELKRTVAAPSVFIFPPSDEQLKSGTASVVCLLNNFYPREAKVQWKVDNALQSGNSQESVTEQDSKDSTYSLSSTLTLSKADYEKHKVYACEVTHQGLSSPVTKSFNRGEC
notes: humanized variant of antibody 39 (VH1 + VL3 with I2T), IgG4 (S228P)
B4: hu39.7_IGG4.P (antibody, human IgG4 S228P, kappa)
heavy: QVQLVESGGGVVQPGRSLRLSCAASGFTFNNYGMNWVRQAPGKGLEWVASFSSSSTYISYADTVKGRFTISRDNSKNTLYLQMSSLRAEDTAVYYCARHGRYGGYGGFYFDYWGQGTMVTVSSASTKGPSVFPLAPCSRSTSESTAALGCLVKDYFPEPVTVSWNSGALTSGVHTFPAVLQSSGLYSLSSVVTVPSSSLGTKTYTCNVDHKPSNTKVDKRV[no letters for human IgG4 Fc with S228P (EU numbers)]
light: ETVMTQSPATLSVSPGERATLSCRASEGVKSYMHWYQQKPGQAPRLLIYKASNLASGIPARFSGSGSGTEFTLTISSLQSEDFAVYYCQQSWNDPTFGQGTKLELKRTVAAPSVFIFPPSDEQLKSGTASVVCLLNNFYPREAKVQWKVDNALQSGNSQESVTEQDSKDSTYSLSSTLTLSKADYEKHKVYACEVTHQGLSSPVTKSFNRGEC
notes: humanized variant of antibody 39 (VH3 + VL3 with I2T), IgG4 (S228P)

How the values were obtained:
[1] = biological target: T1, soluble His-tagged human CD39 ECD …; assay: SPR (Biacore 8K), antibody captured via anti-human Fc, CD39 ECD analyte
[2] = biological target: T2, human CD39 expressed on the cell surface; assay: cell-based or functional assay
[3] = biological target: T2, human CD39 expressed on the cell surface; assay: flow cytometry on purified human CD14+ monocytes, 400 uM ATP
[4] = biological target: T2, human CD39 expressed on the cell surface; assay: cell-based or functional assay; remark: listed apart in the source
[5] = biological target: T2, human CD39 expressed on the cell surface; assay: cell-based or functional assay; remark: listed apart in the source
[6] = biological target: T2, human CD39 expressed on the cell surface; assay: cell-based or functional assay; remark: listed apart in the source
[7] = biological target: T2, human CD39 expressed on the cell surface; assay: flow cytometry on purified human CD14+ monocytes, 0 uM ATP
[8] = biological target: T1, soluble His-tagged human CD39 ECD …; assay: SPR (Biacore 8K), antibody captured via anti-human Fc, CD39 ECD analyte; remark: listed apart in the source
[9] = biological target: T2, human CD39 expressed on the cell surface; assay: FACS on CHO-K1 cells overexpressing human CD39
[10] = biological target: T3, cynomolgus monkey CD39 expressed on …; assay: FACS on HEK293 cells overexpressing cynomolgus CD39
[11] = biological target: T2, human CD39 expressed on the cell surface; assay: cell-based or functional assay; remark: listed apart in the source

Binder	Kd [1] [nM]	koff [1] [s⁻¹]	kon [1] [M⁻¹ s⁻¹]	IC50, CD39 enzymatic inhibition on THP-1 cells, 20 uM ATP [2] [nM]	Max Inhibition (%), THP-1 cells [2] [%]	EC50 [3] [nM]	IC50, CD39 enzymatic inhibition on SK-MEL-5 cells, 20 uM ATP [4] [nM]	Max Inhibition (%), SK-MEL-5 cells [4] [%]	IC50, CD39 enzymatic inhibition on human monocytes, 400 uM ATP [5] [nM]	Max Inhibition (%), human monocytes, 400 uM ATP [5] [%]	IC50, CD39 enzymatic inhibition on human monocytes, 20 uM ATP [6] [nM]	Max Inhibition (%), human monocytes, 20 uM ATP [6] [%]	EC50 [7] [nM]	Kd [8] [nM]	koff [8] [s⁻¹]	kon [8] [M⁻¹ s⁻¹]	EC50 [9] [nM]	EC50 [10] [nM]	Human THP-1 CD39 inhibition IC50 [11] [nM]
B1	0.254	0.000116	455000	–	–	–	–	–	–	–	–	–	–	–	–	–	–	–	–
B2	0.347	9.38e-05	270000	0.058	79	6.5	0.12	55	0.38	73	0.21	68	3.5	–	–	–	–	–	–
B3	–	–	–	–	–	–	–	–	–	–	–	–	–	0.15	8.5e-05	567000	–	–	–
B4	–	–	–	0.071	77	6.9	0.2	65	0.39	70	0.2	70	5.7	0.191	5.87e-05	308000	0.46	0.11	0.08
